# According to PubChem BioAssay AID588795 (National Center for Advancing Translational Sciences (NCATS), 2011):
# About 1,400 (0.36%) of roughly 390,000 compounds were called active. The shares of active, inactive and inconclusive entries below differ from those in the screen. Calls follow the shape of the dose curve; as a rule, active = well fitted inhibition curve with a large enough effect; inconclusive = small, poorly fitted or top-dose-only effect; inactive = no such curve, though single readings can be large or run the other way. Where the call is inconclusive, the potency comes from a doubtful curve fit.
# Biological target: Flap endonuclease 1 (Homo sapiens) (UniProt P39748)
# Test: qHTS Assay for the Inhibitors of Human Flap endonuclease 1 (FEN1). Also: nearly all actives have a fitted effect of over 65% in size.
# Conditions: Recombinant FEN1 flap cleavage, fluorescence, 15 min; series mostly up to 114 µM; activity change, negative = inhibition: at the top concentration
# Method in brief: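 Quantitative HTS format: each compound was titrated, incubated with 10 nM nuclease for 15 min at room temperature, then challenged with flap substrate at 50 nM final. Signal change over 15 min gave concentration–effect curves.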
# % is scaled to controls: 0 for no effect and ±100 for the full control effect; potency is read from the fitted curve at half-maximal effect; tags tell the direction and shape of the fitted curve.
# Chain of UniProt P39748 (P39748 whole entry, looked up): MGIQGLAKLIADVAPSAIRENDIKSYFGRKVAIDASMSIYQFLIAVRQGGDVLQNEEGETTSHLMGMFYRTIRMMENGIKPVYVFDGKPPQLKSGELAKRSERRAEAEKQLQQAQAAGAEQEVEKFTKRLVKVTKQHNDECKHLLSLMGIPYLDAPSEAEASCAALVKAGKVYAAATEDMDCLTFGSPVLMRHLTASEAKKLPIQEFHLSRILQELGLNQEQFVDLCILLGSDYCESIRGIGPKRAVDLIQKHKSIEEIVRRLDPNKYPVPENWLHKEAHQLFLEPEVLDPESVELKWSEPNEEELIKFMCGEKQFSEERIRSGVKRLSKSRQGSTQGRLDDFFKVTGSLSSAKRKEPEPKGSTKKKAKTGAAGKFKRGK
Structure (SMILES),Potency,"activity change, negative = inhibition"
Cc1c(CC(=O)N2CCN(C(=O)C3COc4ccccc4O3)CC2)c(=O)oc2c(O)c(O)ccc12 (configuration not stated),"inconclusive: 7.08 µM [inhibitor, partial curve, poor fit]",–
Cc1cc2n(n1)C(c1c[nH]c3ccccc13)Nc1ccccc1-2 (configuration not stated),"inconclusive: 89.1 µM [inhibitor, partial curve, poor fit]",–
N=c1nc(-c2ccccc2)n(-c2ccccc2)s1,active: 89.1 µM,–
CCOC(=O)c1c(NC(=O)c2ccn(CC)n2)sc2c1CCCC2,"inconclusive: 89.1 µM [inhibitor, partial curve, poor fit]",–
OCC(O)C(O)C(O)C(O)C=Nc1ccc(/C=C/c2ccnc3ccccc23)cc1 (configuration not stated),–,inactive: 5.86%
Cc1ccc(N(CC(O)Cn2c3ccccc3c3ccccc32)S(=O)(=O)c2ccc(F)cc2)cc1 (configuration not stated),"inconclusive: 89.1 µM [inhibitor, partial curve, poor fit]",–
CCC(NC(C)C)C(O)c1ccc(O)c(O)c1 (configuration not stated),"inconclusive: 39.8 µM [inhibitor, single point]",–
CCc1ccc(NC(=O)CN2C(=O)C3CCCN3c3ccc(S(=O)(=O)N(CC)CC)cc32)cc1 (configuration not stated),–,inactive: 1.74%
O=C1CN(C(=O)COC(=O)c2ccc([N+](=O)[O-])o2)c2ccccc2N1,"inconclusive: 25.1 µM [inhibitor, partial curve, poor fit]",–
COc1cccc(-c2nc(SCc3cccc(Br)c3)n3[nH]c(=O)cc3n2)c1,–,inactive: -17.7%
CC(C)(C)NC(=O)c1oc2ccccc2c1COc1ccccc1,"inconclusive: 79.4 µM [inhibitor, partial curve, poor fit]",–
CCn1c(CSc2nnc(-c3ccncc3)n2C)nc2cc(C(=O)O)ccc21,"inconclusive: 89.1 µM [inhibitor, single point]",–
COc1ccccc1/C=C/c1onc(C)c1S(=O)(=O)N1CCC(C(=O)N2CCC(C)CC2)CC1,–,inactive: 10.1%
COc1cc(/C=C(\C#N)c2nc3ccccc3s2)cc([N+](=O)[O-])c1O,"inconclusive: 50.1 µM [inhibitor, partial curve]",–
CCCNC(=O)Cn1nc(-c2ccc(C)c(C)c2)c2cnc3ccc(OC)cc3c21,–,inactive: 0.965%
COc1cc(-n2nc(C)c3c2OC(N)=C(C#N)C3c2ccccc2)c(Cl)c(Br)c1O (configuration not stated),"inconclusive: 79.4 µM [inhibitor, partial curve, poor fit]",–
COc1cc(/C=C2\SC(=Nc3ccc(O)cc3)NC2=O)cc(OC)c1O,"inconclusive: 10 µM [inhibitor, partial curve, poor fit]",–
COC/C=C/C1=CC2=CC(=O)C(C)(OC(=O)c3cnc4ccccc4n3)C(=O)C2=CN1C1CC1 (configuration not stated),"inconclusive: 31.6 µM [inhibitor, partial curve, poor fit]",–
CCOC(=O)c1ccc(OC(=O)c2cn(-c3ccc(C)cc3)c(=O)c3ccccc23)cc1,–,inactive: 2.85%
O=C(Nc1ccc(Oc2ccccc2)cc1)c1ccc(F)c(S(=O)(=O)N2CCN(c3ccccc3F)CC2)c1,–,inactive: -2.15%
COc1cc(/C=C2/C(=O)N(c3cccc(Br)c3)N=C2C)cc(OC)c1O,"inconclusive: 17.8 µM [inhibitor, partial curve, poor fit]",–
O=[N+]([O-])c1ccc(N/N=C/C=C/c2ccco2)cc1,–,inactive: -0.732%
CC(C)c1ccc(NC(=O)COC(=O)CC2CCCC2)cc1,"inconclusive: 70.8 µM [inhibitor, partial curve, poor fit]",–

Structure (SMILES),Potency,"activity change, negative = inhibition"
O=c1[nH]nc(-c2n[nH]c(=O)o2)o1,–,inactive: -4.81%
Cc1ccc(C)c2c1[nH]c1ccccc12,"inconclusive: 100 µM [inhibitor, partial curve, poor fit]",–
O=c1cc(-c2ccc(O)c(O)c2)oc2ccc3ccccc3c12,"inconclusive: 35.5 µM [inhibitor, partial curve, poor fit]",–
COCCn1c(C)cc(O)c(C(c2ccccc2Cl)N2CCCCC2)c1=O (configuration not stated),–,inactive: 8.61%
CC(C)C1Nc2ccc(C(=O)O)cc2C2C=CCC21 (configuration not stated),"inconclusive: 89.1 µM [inhibitor, partial curve]",–
c1ccc(Nc2cccc(Nc3ccccc3)c2)cc1,"inconclusive: 56.2 µM [inhibitor, partial curve, poor fit]",–
CCC(C)Sc1ccc([C@@H]2[C@H]3C(=O)N(CC)C(=O)[C@H]3[C@]3(C(=O)OC)CCCCN23)cc1 (some centres not stated),"inconclusive: 50.1 µM [inhibitor, partial curve, poor fit]",–
Cc1ccc(Cn2cc(CCC(=O)NCC(C)c3ccccc3)c3ccccc32)cc1 (configuration not stated),–,inactive: 0.355%
Cc1ccccc1NC(=O)CN1C(=O)S/C(=C\c2ccc(-c3cccc(C(=O)O)c3C)o2)C1=O,–,inactive: -13%
S=C(Nc1ccc2cn[nH]c2c1)Nc1ccccc1Cl,–,inactive: 8.64%
O=C1NC(=S)S/C1=C\c1ccc(SCc2ccccc2)o1,active: 79.4 µM,–
O=C1NN(c2ccccc2)C(=O)/C1=C/c1ccc(-c2cccc(C(=O)O)c2)o1,"inconclusive: 89.1 µM [inhibitor, single point]",–
Cn1nnnc1SCCNCc1ccccc1OCc1ccc(Cl)cc1Cl,"inconclusive: 79.4 µM [inhibitor, partial curve, poor fit]",–
CCCCCCCCCCCCCCCC(=O)NCCO,"inconclusive: 5.97 µM [inhibitor, partial curve, poor fit]",–
COc1cccc(CNc2ncc(-c3ccc(Br)cc3)n2C)c1,"inconclusive: 79.4 µM [inhibitor, partial curve]",–
CC(C)N(C(=O)c1cc2c(Cl)nc3ccccc3c2s1)C1CCCCC1,–,inactive: -8.82%
COc1ccccc1-c1cc(C(F)(F)F)nc(NCc2ccco2)n1,"inconclusive: 56.2 µM [inhibitor, partial curve, poor fit]",–
Cc1ccccc1NC(=O)CN1C(=O)S/C(=C\c2cccn2-c2cccc(C(=O)O)c2)C1=O,"inconclusive: 89.1 µM [inhibitor, single point]",–
CCC(C)NC(=O)CCC(=O)Nc1ccc2nc(N3CC(C)CC(C)C3)cc(C)c2c1 (configuration not stated),"inconclusive: 89.1 µM [inhibitor, partial curve, poor fit]",–
CCCCc1nc(NCCNC(=O)c2ccco2)c(C#N)c2c1CSC(C)(C)C2,–,inactive: -5.87%
CCC(=O)N/C(N)=N/c1nc(C)c2cc(OC)ccc2n1,active: 79.4 µM,–
Cc1cc(C(=O)CN2C(=O)NC3(CCCCC3)C2=O)c(C)n1-c1ccc2c(c1)OCO2,–,inactive: 4.48%
O=C(C[n+]1cccc(Br)c1)c1ccc2c(c1)CCCC2,–,inactive: -10.9%

Structure (SMILES),Potency,"activity change, negative = inhibition"
Cc1ccc(CNC(=O)c2oc3ccc(S(=O)(=O)N4CCC(C)CC4)cc3c2C)cc1,"inconclusive: 89.1 µM [inhibitor, partial curve, poor fit]",–
O=C(c1coc(=O)c(Br)c1)N1CCCc2ccccc21,"inconclusive: 89.1 µM [inhibitor, single point]",–
O=C(Nc1ccc2ccccc2c1)c1ccc(Cl)cc1Cl,–,inactive: 5.91%
Cc1ccccc1CN1C(=O)C(O)(CC(=O)c2ccccc2)c2cc(Cl)ccc21 (configuration not stated),–,inactive: -27.8%
COc1cc2nc(Nc3ccc(C)c(Cl)c3)nc(N)c2cc1OC,"inconclusive: 89.1 µM [inhibitor, single point]",–
CCn1c(CSc2nnc3ccccn23)nc2cc(C(=O)O)ccc21,active: 50.1 µM,–
CC(C)(C)OC(=O)N1CCC(c2c(C(=O)NCCN3CCCC3)cnn2-c2ccc(Cl)cc2)CC1,–,inactive: 0.44%
CCOC(=O)c1ccc(N/C(=N\S(=O)(=O)c2ccccc2C)c2ccccc2)cc1,–,inactive: -21.6%
COc1ccc(C(=O)O/N=C(\C)c2nccs2)cc1,–,inactive: 8.32%
COc1ccc(NC(=O)Cn2cnc3ccc(S(=O)(=O)N4CCC(C)CC4)cc3c2=O)cc1Cl,–,inactive: 9.59%
COc1ccc2[nH]c3c(=O)n(CCCCC(=O)NCCN4CCCC4)c(=S)[nH]c3c2c1,"inconclusive: 79.4 µM [inhibitor, partial curve]",–
CC(=O)Nc1ccc(S[C@@H](CCN2CC[C@H](C(C)(C)C)CCC2=O)c2ccccc2)cc1,"inconclusive: 89.1 µM [inhibitor, partial curve, poor fit]",–
COc1cc(OC)nc(Oc2ccccc2C(=O)Oc2ccc(Cl)cc2)n1,"inconclusive: 70.8 µM [inhibitor, partial curve, poor fit]",–
CCN1CCN(Cc2ccc(NC(=O)c3ccc(C)c(NC(=O)c4csc(-c5ccncc5)n4)c3)cc2C(F)(F)F)CC1,"inconclusive: 70.8 µM [inhibitor, single point]",–
CC(C)[C@H](NC(=O)c1ccc(C(C)(C)C)cc1)C(=O)N1CCN(Cc2ccc3c(c2)OCO3)CC1,"inconclusive: 89.1 µM [inhibitor, partial curve, poor fit]",–
C[C@@H](NC(=O)c1nc[nH]c1C(=O)N[C@@H](Cc1ccccc1)C(=O)OCc1ccccc1)c1ccccc1,"inconclusive: 44.7 µM [inhibitor, partial curve, poor fit]",–
COc1ccc(-c2csc(NC(=O)c3ccccc3NS(=O)(=O)c3ccc(F)c(F)c3)n2)cc1,"inconclusive: 56.2 µM [inhibitor, partial curve, poor fit]",–
CCn1cc(C(=O)NCCc2ccc(Cl)cc2)c(=O)c2cc(S(=O)(=O)N3CCc4ccccc4C3)ccc21,–,inactive: 17.5%
CC(C)C(=O)Nc1cccc(N2CCN(CCCN3C(=O)C4CCCCN4C3=O)CC2)c1 (configuration not stated),"inconclusive: 12.6 µM [inhibitor, partial curve, poor fit]",–
CCOc1ccc(Nc2nc(Cc3nnc(SCC(=O)O)o3)cs2)cc1,–,inactive: -5.17%
O=C(N/N=C/c1ccc(O)c(O)c1)c1ccc(CSc2cccc3cccnc23)cc1,"inconclusive: 28.2 µM [inhibitor, partial curve]",–
